Measurements published in PubChem BioAssay AID504339 (National Center for Advancing Translational Sciences (NCATS), 2011).
Screen size: about 390,000 compounds; about 17,000 (4.4%) were called active. The inconclusive results got no clear call from the source; some entries with a clear call stand among them for comparison. The call rests on the fitted dose curve; in most records, active means well fitted inhibition curve with a large enough effect; inconclusive means small, poorly fitted or top-dose-only effect; inactive means no such curve, though single readings can be large or run the other way. A potency beside an inconclusive call is a rough fit, not a confirmed value.

What follows are compounds tested against Lysine-specific demethylase 4A (Homo sapiens) (UniProt O75164) (assay: qHTS Assay for Inhibitors of JMJD2A-Tudor Domain). Conditions: AlphaScreen JMJD2A-Tudor / H3K4me3 peptide binding; series mostly up to 114 µM.
Further: nearly all actives have a fitted effect of over 50% in size.
Potency means the concentration at half of the fitted maximal effect; tags describe the fitted curve by direction and shape.

UniProt O75164, sequence (O75164 whole entry, looked up, the tested form may be a part): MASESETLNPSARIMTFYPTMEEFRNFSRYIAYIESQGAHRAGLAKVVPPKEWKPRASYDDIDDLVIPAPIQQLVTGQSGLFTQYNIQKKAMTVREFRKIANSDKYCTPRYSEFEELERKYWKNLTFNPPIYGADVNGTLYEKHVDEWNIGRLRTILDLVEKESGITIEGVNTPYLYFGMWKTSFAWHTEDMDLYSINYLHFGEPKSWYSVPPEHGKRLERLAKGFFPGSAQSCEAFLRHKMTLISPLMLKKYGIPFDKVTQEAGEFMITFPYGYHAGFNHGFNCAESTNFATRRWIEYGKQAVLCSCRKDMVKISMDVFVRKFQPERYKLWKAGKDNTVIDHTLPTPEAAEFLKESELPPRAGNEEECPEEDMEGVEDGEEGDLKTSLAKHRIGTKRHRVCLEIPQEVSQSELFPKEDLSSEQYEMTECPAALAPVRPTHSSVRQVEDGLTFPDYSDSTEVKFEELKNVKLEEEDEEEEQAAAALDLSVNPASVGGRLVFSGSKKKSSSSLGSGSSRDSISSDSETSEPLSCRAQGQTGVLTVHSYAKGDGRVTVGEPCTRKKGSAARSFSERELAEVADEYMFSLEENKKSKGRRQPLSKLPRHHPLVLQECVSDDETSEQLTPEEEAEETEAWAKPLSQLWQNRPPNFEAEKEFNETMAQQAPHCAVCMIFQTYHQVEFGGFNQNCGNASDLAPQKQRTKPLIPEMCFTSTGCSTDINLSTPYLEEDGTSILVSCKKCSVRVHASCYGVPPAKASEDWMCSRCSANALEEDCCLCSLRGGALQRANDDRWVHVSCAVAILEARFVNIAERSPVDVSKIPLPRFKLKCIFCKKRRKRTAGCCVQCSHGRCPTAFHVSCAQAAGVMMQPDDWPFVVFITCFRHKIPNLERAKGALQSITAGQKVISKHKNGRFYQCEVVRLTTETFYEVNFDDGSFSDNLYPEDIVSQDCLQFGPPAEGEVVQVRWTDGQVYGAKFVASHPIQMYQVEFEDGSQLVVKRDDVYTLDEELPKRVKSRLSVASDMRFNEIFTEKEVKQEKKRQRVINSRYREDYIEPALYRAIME

Structure (SMILES)	Potency
CN(C)CCn1c(=O)n(-c2cccc(Cl)c2)c(=O)c2c3c(sc21)CCCCC3	inconclusive: 56.2 µM [inhibitor, partial curve]
COc1cc(/C=C2/N=C(C3CCCCC3)OC2=O)cc(OC)c1OC	inconclusive: 100 µM [inhibitor, single point]
Cc1nc(C(=O)NNC(=O)c2ccc(Cl)cc2)c(C(F)(F)F)o1	inconclusive: 2.82 µM [inhibitor, partial curve, poor fit]
CCc1nnc2c(Nc3ccc(N(CC)CC)cc3C)nc3ccccc3n12	active: 15.8 µM
O=C(Nc1ccccc1N1CCCC1)c1cccc(Cl)c1Cl	inconclusive: 35.5 µM [inhibitor, single point]
CCCC(=O)c1ccc(N2CCC(C)CC2)c(F)c1	inactive
Cc1cc(N2C(=O)C(O)=C(C(=O)c3cc4ccccc4o3)C2c2ccc(Br)cc2)no1 (configuration not stated)	inconclusive: 56.2 µM [inhibitor, partial curve]
FC(F)(F)c1ccc(Cl)c(-n2c(-c3cc(C4CC4)[nH]n3)n[nH]c2=S)c1	inconclusive: 89.1 µM [inhibitor, single point]
Cc1cc(OCC(O)CN2CCN(c3cccc(Cl)c3)CC2)ccc1Cl (configuration not stated)	active: 79.4 µM
O=C(NN1C(=O)/C(=C/c2cccc(O)c2)SC1=S)c1ccccc1O	active: 44.7 µM
Cc1cc(/C=N\NC(=O)COc2cccc3cccnc23)c(C)n1-c1ccccc1	inconclusive: 44.7 µM [inhibitor, partial curve]
COc1ccc(-c2ccc(CCC(=O)O)n2-c2ccccc2O)cc1	inconclusive: 56.2 µM [inhibitor, partial curve]
O=C(NC1=NCCS1)C1CCN(S(=O)(=O)c2cc([N+](=O)[O-])ccc2Cl)CC1	inconclusive: 25.1 µM [inhibitor, full curve]
Cc1cs/c(=N\N=C\c2ccccc2)n1Cc1ccco1	active: 35.5 µM
O=C(Cc1ccccc1)NCc1ccc2c(c1)OCO2	inactive
O=C(CCc1nc2ccccc2[nH]1)NCc1ccc2c(c1)OCO2	inactive
O=C(COC(=O)/C=C/c1cccc(F)c1)Nc1ncccn1	inconclusive: 79.4 µM [inhibitor, partial curve]
O=S(=O)(c1ccc(F)cc1)N1CCN(CC(O)COCc2cccs2)CC1 (configuration not stated)	active: 2.51 µM
COc1ccc(C2NC(=O)N(C)C3=C2C(=O)N(c2cccc(C(=O)O)c2)C3)cc1 (configuration not stated)	inconclusive: 89.1 µM [inhibitor, single point]
CCN(CC)c1ccc(C(=O)NCc2ccc3c(c2)CCN3C(=O)c2ccc(F)cc2)cc1	inactive
CCN(CC)CCCNC(=O)c1nn(C)c2c1CSc1ccccc1-2	inactive
O=C(O)c1ccc(Cl)c(S(=O)(=O)N2CCCC2)c1	inactive
COc1ccc(C(=O)NC2CCN(CC(=O)NCc3ccccc3F)CC2)cc1	inconclusive: 0.891 µM [inhibitor, full curve, poor fit]
COCCNCCCCOc1ccc(Br)cc1C	active: 1.12 µM

Structure (SMILES)	Potency
COc1ccc(C(C)=O)cc1CSc1nc(NCCc2ccccc2)c2ccccc2n1	inactive
Cc1cc(CNC(=O)COc2ccc(C)c(C)c2)c2ccccc2n1	inactive
CCOC(=O)c1[nH]c2cc3c(cc2c1NC(=O)CN1CC(C)CC(C)C1)OCO3 (configuration not stated)	inconclusive: 25.1 µM [inhibitor, single point]
COCc1cc(=O)n2[nH]cc(-c3ccccc3)c2n1	inconclusive: 22.4 µM [inhibitor, full curve, poor fit]
CCOC(=O)[C@H]1[C@H]2COc3ccccc3[C@@H]2N2C(=O)CN(CC3CCCO3)C(=O)[C@@]12C (some centres not stated)	inactive
COc1cc(C(=O)Nc2ccc3c(c2)N(C2CCCC2)C(=O)c2ccccc2S3)cc(OC)c1OC	inactive
COc1ccccc1NC(=O)NC1(C(=O)N2CCN(C)CC2)CCCCC1	inactive
CC(C)Oc1ccc(C(=O)NCC(c2ccc(N(C)C)cc2)N2CCCC2)cc1 (configuration not stated)	inconclusive: 50.1 µM [inhibitor, partial curve]
Cc1ccc(NS(=O)(=O)c2cc(-c3cnc(C4CC4)o3)ccc2C)cc1Cl	inconclusive: 56.2 µM [inhibitor, partial curve]
C=CCn1c(=O)/c(=C/c2ccc(Cl)cc2)s/c1=C(/C#N)c1nnc2n1CCCCC2	inconclusive: 39.8 µM [inhibitor, partial curve]
Cc1cccc(NNC(=S)Nc2c(C)cccc2C)c1	active: 14.1 µM
COC(=O)c1sc(=S)sc1C(=O)OC	inconclusive: 56.2 µM [inhibitor, partial curve]
CCC(C)NC(=S)NNC(=O)c1ccc(C(C)(C)C)cc1 (configuration not stated)	inactive
CCc1cccc(NC(=O)Nc2cccs2)c1	inconclusive: 56.2 µM [inhibitor, partial curve]
Cc1noc(/C=C/N(C)C)c1S(=O)(=O)N1CCc2ccccc21	inconclusive: 50.1 µM [inhibitor, partial curve]
COc1ccc(-n2c(COc3cccc(C)c3)n[nH]c2=S)cc1	inconclusive: 79.4 µM [inhibitor, partial curve]
Cc1cc(-n2c(C)cc(C(=O)CN3C(=O)NC4(CCCCCC4)C3=O)c2C)no1	inactive
CCOC(=O)CNC(=O)CSc1nc(Cc2cccs2)nc2ccccc12	inconclusive: 79.4 µM [inhibitor, single point]
CCOC(=O)C1=C(C)NC(C)=C(C(=O)OC)C1c1cccc([N+](=O)[O-])c1 (configuration not stated)	inconclusive: 50.1 µM [inhibitor, partial curve]
Cc1cccc(CN2C(=O)[C@H]3Cc4c([nH]c5ccccc45)C(C)(C)N3C2=O)c1	inconclusive: 44.7 µM [inhibitor, partial curve]
COc1ccc(NC(=S)NNC(=O)c2ccco2)c(OC)c1	inactive
Cc1ccc(NC(=O)CCc2nc3sc4c(c3c(=O)[nH]2)CCCC4)c(Br)c1	inconclusive: 28.2 µM [inhibitor, full curve, poor fit]
O=C(Nc1c2c(nn1-c1ccccc1)CS(=O)(=O)C2)c1ccccc1C(F)(F)F	inactive
